# Laboratory results reported in PMC10317990.
# Protein sequences, listed by entry. Tags and fused reporters are not part of them. Lines headed by an entry give the natural chain unless they say otherwise; changes in a name come on top. Chains listed by the source or under a name are the forms on record and can include a tag or linker. Residues count along the entry.
# UniProt P01106, residues 16-454: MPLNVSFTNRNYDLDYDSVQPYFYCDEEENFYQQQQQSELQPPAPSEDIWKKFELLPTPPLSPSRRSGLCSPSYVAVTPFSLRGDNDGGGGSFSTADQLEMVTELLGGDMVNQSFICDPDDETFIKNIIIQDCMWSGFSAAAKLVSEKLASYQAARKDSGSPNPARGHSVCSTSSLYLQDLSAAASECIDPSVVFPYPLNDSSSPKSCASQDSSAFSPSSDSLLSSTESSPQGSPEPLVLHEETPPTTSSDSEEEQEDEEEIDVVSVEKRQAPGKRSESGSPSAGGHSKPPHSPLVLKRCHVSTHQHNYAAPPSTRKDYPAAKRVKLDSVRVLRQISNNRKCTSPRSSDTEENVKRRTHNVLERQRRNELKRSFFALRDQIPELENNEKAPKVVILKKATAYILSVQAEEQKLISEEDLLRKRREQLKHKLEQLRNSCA
# UniProt Q13761: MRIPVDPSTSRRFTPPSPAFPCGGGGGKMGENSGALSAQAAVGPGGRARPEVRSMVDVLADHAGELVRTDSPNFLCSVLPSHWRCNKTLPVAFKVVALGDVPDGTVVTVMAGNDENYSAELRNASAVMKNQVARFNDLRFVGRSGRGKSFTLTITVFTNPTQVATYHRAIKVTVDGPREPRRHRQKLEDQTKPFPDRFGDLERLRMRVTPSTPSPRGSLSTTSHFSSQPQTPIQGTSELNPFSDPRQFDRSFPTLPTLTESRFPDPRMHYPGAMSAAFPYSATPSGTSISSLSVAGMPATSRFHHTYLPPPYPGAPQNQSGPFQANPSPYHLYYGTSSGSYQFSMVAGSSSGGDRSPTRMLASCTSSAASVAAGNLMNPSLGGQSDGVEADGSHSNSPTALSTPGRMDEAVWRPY
# FLAG-tagged RUNX3 truncation (aa 1-187): residues 1-187 of Q13761
# No constants are given. Whether binding was seen depends on the method and setting. Binding seen in cells or lysates may run through a third protein. Some entries that bind do so weakly or less than the wild type.
# Columns and labels:
# FLAG-tagged MYC = FLAG-tagged MYC (UniProt P01106); assay: co-IP; HEK293T cells transfected with the indicated plasmids, lysed 24 h later; 400 µg lysate, 90 min with anti-HA affinity gel or Flag M2 affinity gel in 25 mM Tris pH 8.0, 0.15 M NaCl, 0.25 mM EDTA, 2.5% glycerol, 0.25% NP40, 1 mM DTT; Benzonase in the lysis buffer; immunoblot
# [1] = target: FLAG-tagged RUNX3 (human) (UniProt Q13761); assay: as above
# [2] = target: FLAG-tagged RUNX3 truncation (aa 1-187) (human) (UniProt Q13761); assay: as above
# [3] = target: endogenous RUNX3 (human (endogenous in HGC27)) (UniProt Q13761); assay: proximity ligation; Duolink in situ PLA on HGC27 cells, endogenous proteins, pairs of primary antibodies
# [4] = target: endogenous RUNX3 (human (endogenous in HGC27)) (UniProt Q13761); assay: co-IP; endogenous proteins, 1 mg HGC27 whole-cell lysate, anti-RUNX3 antibody (D9K6L) or normal IgG overnight at 4 °C, Dynabeads Protein G; immunoblot
Binder,binding (FLAG-tagged MYC),binding [1],binding [2],binding [3],binding [4]
"MIZ-1 (protein, UniProt Q13105 1-803) MDFPQHSQHVLEQLNQQRQLGLLCDCTFVVDGVHFKAHKAVLAACSEYFKMLFVDQKDVVHLDISNAAGLGQVLEFMYTAKLSLSPENVDDVLAVATFLQMQDIITACHALKSLAEPATSPGGNAEALATEGGDKRAKEEKVATSTLSRLEQAGRSTPIGPSRDLKEERGGQAQSAASGAEQTEKADAPREPPPVELKPDPTSGMAAAEAEAALSESSEQEMEVEPARKGEEEQKEQEEQEEEGAGPAEVKEEGSQLENGEAPEENENEESAGTDSGQELGSEARGLRSGTYGDRTESKAYGSVIHKCEDCGKEFTHTGNFKRHIRIHTGEKPFSCRECSKAFSDPAACKAHEKTHSPLKPYGCEECGKSYRLISLLNLHKKRHSGEARYRCEDCGKLFTTSGNLKRHQLVHSGEKPYQCDYCGRSFSDPTSKMRHLETHDTDKEHKCPHCDKKFNQVGNLKAHLKIHIADGPLKCRECGKQFTTSGNLKRHLRIHSGEKPYVCIHCQRQFADPGALQRHVRIHTGEKPCQCVMCGKAFTQASSLIAHVRQHTGEKPYVCERCGKRFVQSSQLANHIRHHDNIRPHKCSVCSKAFVNVGDLSKHIIIHTGEKPYLCDKCGRGFNRVDNLRSHVKTVHQGKAGIKILEPEEGSEVSVVTVDDMVTLATEALAATAVTQLTVVPVGAAVTADETEVLKAEISKAVKQVQEEDPNTHILYACDSCGDKFLDANSLAQHVRIHTAQALVMFQTDADFYQQYGPGGTWPAGQVLQAGELVFRPRDGAEGQPALAETSPTAPECPPPAE",binds,binds,binds,–,–
"endogenous MIZ-1 (protein, UniProt Q13105 1-803) MDFPQHSQHVLEQLNQQRQLGLLCDCTFVVDGVHFKAHKAVLAACSEYFKMLFVDQKDVVHLDISNAAGLGQVLEFMYTAKLSLSPENVDDVLAVATFLQMQDIITACHALKSLAEPATSPGGNAEALATEGGDKRAKEEKVATSTLSRLEQAGRSTPIGPSRDLKEERGGQAQSAASGAEQTEKADAPREPPPVELKPDPTSGMAAAEAEAALSESSEQEMEVEPARKGEEEQKEQEEQEEEGAGPAEVKEEGSQLENGEAPEENENEESAGTDSGQELGSEARGLRSGTYGDRTESKAYGSVIHKCEDCGKEFTHTGNFKRHIRIHTGEKPFSCRECSKAFSDPAACKAHEKTHSPLKPYGCEECGKSYRLISLLNLHKKRHSGEARYRCEDCGKLFTTSGNLKRHQLVHSGEKPYQCDYCGRSFSDPTSKMRHLETHDTDKEHKCPHCDKKFNQVGNLKAHLKIHIADGPLKCRECGKQFTTSGNLKRHLRIHSGEKPYVCIHCQRQFADPGALQRHVRIHTGEKPCQCVMCGKAFTQASSLIAHVRQHTGEKPYVCERCGKRFVQSSQLANHIRHHDNIRPHKCSVCSKAFVNVGDLSKHIIIHTGEKPYLCDKCGRGFNRVDNLRSHVKTVHQGKAGIKILEPEEGSEVSVVTVDDMVTLATEALAATAVTQLTVVPVGAAVTADETEVLKAEISKAVKQVQEEDPNTHILYACDSCGDKFLDANSLAQHVRIHTAQALVMFQTDADFYQQYGPGGTWPAGQVLQAGELVFRPRDGAEGQPALAETSPTAPECPPPAE",–,–,–,binds,binds
